Laboratory results as given in patent US4086345A, “Product and method for combatting swine dysentery” (Istituto Chemioterapico Italiano, priority 1977, dated 1978).

Experiments:
swine dysentery = experiment: Swine dysentery, feeding in swine rations; settings: for Symptoms of swine dysentery, prophylaxis: 200 g/ton in swine rations, area with previous outbreak; for Symptoms and spread of swine dysentery, treatment of diseased herd: 400 g/ton in swine rations
[1] = Toxicity (summary in words); settings: same manner as described for CO-1 in Example 1
[2] = tested on: five strains of Vibrio cholerae; experiment: Effect on five strains of Vibrio cholerae; settings: 10 μg/ml, after 48 hours

| Structure (SMILES) | Symptoms of swine dysentery, prophylaxis (swine dysentery) | Symptoms and spread of swine dysentery, treatment of diseased herd (swine dysentery) | Toxicity relative to CO-1 [1] | Growth of the five Vibrio cholerae strains [2] |
| --- | --- | --- | --- | --- |
| Nc1nccc(C=Cc2c[n+]([O-])c3ccccc3[n+]2[O-])n1 [CO-1, 2-[2-(2-amino-4-pyrimidinyl)ethenyl]-quinoxaline 1,4-dioxide] | The members of the herd remain free from symptoms during the duration of their stay | The spread of the disease is halted and the diseased members become free from symptoms |  |  |
| Cc1cc(C=Cc2c[n+]([O-])c3ccccc3[n+]2[O-])nc(N)n1 [CO-2, 2-[2-(2-amino-6-methyl-4-pyrimidinyl)ethenyl]-quinoxaline 1,4-dioxide] | The members of the herd remain free from symptoms during the duration of their stay | The spread of the disease is halted and the diseased members become free from symptoms | Comparable results are obtained | no growth after 48 hours of 3 of the organisms |
